The source gives no read counts; variants with many changes may rest on few reads.
B1: CPEB3 Ribozyme (parent)
chain: UAACAGGGGGCCACAGCAGAAGCGUUCACGUCGCAGCCCCUGUCAGAUUCUGGUGAAUCUGCGAAUUCUGCUGUAUAUCUC

Variants of: B1
Test: self-cleavage, relative activity (ratio to wild type); higher = more cleavage; in vitro, sequencing
In short: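 Barcoded CPEB3 ribozyme mutants, produced by rounds of error-prone PCR, self-cleaved while being transcribed with T7 RNA polymerase for 5 hours at 37°C and during a subsequent 15 min DNase I step before EDTA was added. Sequencing of template-switched cDNA on Illumina gave cleaved and total reads, and DNA sequencing assigned barcodes to variants. Each variant's relative activity is its cleaved/total read fraction divided by the unmutated ribozyme's fraction, averaged across three batches. A variant needed a minimum of 5 reads.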

| Variant | self-cleavage |
| --- | --- |
| A35U U41C U58C U80C | 0.41 |
| A35U U43C U74C U78G | 0.62 |
| A35U U41A A47G U51C G61A U72C U78C | 0.07 |
| A35U A45C U54C A65U | 0.1 |
| A35G U51G U60A A64G A65G U69C | 0.7 |
| A35G U51A A56G A57C | 0.85 |
| A35U U41G U69C | 0.45 |
| A35U U49A C68A U80G | 0.1 |
| A35U A47G U78C | 0.46 |
| A35G U51C A65G | 1.04 |
| A35G U51A U60C | 1.08 |
| A35U A57G C62A A64G U78G | 0.06 |
| A35U U43C A56G | 0.3 |
| A35U U51A A56G U58C C62U | 0.13 |
| A35U A47G C59A U66A U72C | 0.05 |
| A35U A56G A57G U67A C68U | 0.06 |
| G36A C39U C50U U76C | 0.27 |
| A35U U74C U80C | 0.89 |
| A35U C50A U58C U72C U78C | 0.09 |
| A35U U41C A77G | 0.65 |
| A35U U41A U60A U72A U78C | 0.14 |
| A35U U43A A47G U54G U72C | 0.32 |
| G36A A45G U54A U80C | 0.09 |
| A35U U41C A47G U49C U54C U80G | 0.35 |

| Variant | self-cleavage |
| --- | --- |
| G36A G42U U72A | 0.14 |
| A35U U66C U69C | 0.12 |
| A35U U48C U51A U76C | 0.25 |
| A35U U41A G70U U74C | 0.08 |
| A35U A45C A47U U76A U78A | 0.07 |
| A35U U43C U48C A65G U66A | 0.16 |
| A35U U41A A45C C71G | 0.07 |
| A35U G42A U49A U60A | 0.43 |
| G36A U43A U48C U72C | 0.24 |
| A35U C38A U43G | 0.17 |
| A35U U41C U60A | 0.21 |
| A35U U60A A64U | 0.09 |
| A35U U60A A64G | 0.03 |
| G36A G55U A57G U60A U66A U69C | 0.08 |
| A35U A65U U78A | 0.16 |
| A35U U51A A64G U67C | 0.11 |
| A35U A64G A65U U76C A77U | 0.08 |
| A35U A45G U69G | 0.14 |
| A35U G53A U60A | 0.14 |
| A35G U60A U67A | 0.71 |
| A35G U60A U67C | 0.66 |
| A35U U66C A75G | 0.11 |
| A35U A57C U60A U72G A77G | 0.06 |
| A35U U41C G46A | 0.19 |

| Variant | self-cleavage |
| --- | --- |
| A35U A45G A64U G73A U78C | 0.18 |
| A35G U51A U67C | 0.84 |
| A35U U43C U51C A77U | 0.25 |
| A35G U58C A64G | 1.38 |
| A35U U43C A45U U58C A65G U72C | 0.07 |
| A35G U67A U72C | 1.21 |
| A35U C40U U49C | 0.2 |
| A35U U60C U78C | 0.19 |
| A35U U41C A56G | 0.46 |
| A35U U60A A75G | 0.15 |
| A35U U43A U54C U67C U69A | 0.14 |
| A35U U60C C62U U69G | 0.15 |
| A35U A45G U49C | 0.18 |
| A35U A64G U76A | 0.21 |
| A35G U51C U66C A77G | 1.11 |
| A35U G52C U69C | 0.13 |
| A35U U69C G73C U74C | 0.13 |
| A35U U43A G52C A56G | 0.33 |
| A35U U43A U49A U51A A57G U60A | 0.17 |
| G36A U54C U80C | 0.22 |
| A35U A64G G73A | 0.77 |
| A35U A64G U74C U76C | 0.5 |
| A35G U69C A77U | 1.06 |
| A35G U60C A65U U72C | 0.45 |

| Variant | self-cleavage |
| --- | --- |
| A35U A47G A64G | 0.48 |
| A35U U43A U58C U60A U72C | 0.12 |
| A35U U43A A45U U58C A77U | 0.23 |
| A35U U41A A47G U58A G63A | 0.12 |
| A35U U54A U76A | 0.79 |
| A35U A45G U48C U72A | 0.12 |
| A35U U49C U69A | 0.1 |
| G36A A56G U60C | 0.15 |
| A35U U49A A65G | 0.11 |
| G36A U43A U58C G63A U72C | 0 |
| A35U A56C U72C | 0.13 |
| A35G U60C U67A | 0.79 |
| A35G U51C A56G | 1.34 |
| A35U U43C U58A U78C | 0.13 |
| A35U A56G U69A U80C | 0.26 |
| A35G U69C U78C | 1.24 |
| A35U A57U U69C | 0.14 |
| A35U C37A U54C A75U | 0.15 |
| A35G U80A C81U | 1.28 |
| A35U U49G U51A | 0.24 |
| A35G U67C C68A U74C | 1.06 |
| A35U U48C C79U | 0.38 |
| A35G U72A U76G A77G | 1.32 |
| A35U A56C U66C A75G | 0.11 |

| Variant | self-cleavage |
| --- | --- |
| A35U A64U U69A U78C | 0.33 |
| A35U U41C C50A U72A | 0.29 |
| A35G U78A U80A | 1.31 |
| A35G U51A A56G U67C | 0.52 |
| A35U A64G U67C U72C A77U U78C | 0.06 |
| A35U U51C A56U A64U U78C | 0.06 |
| A35U A45U A75U | 0.45 |
| A35U U51C A56G G70A U80C | 0.1 |
| G36A U43C U69A | 0.07 |
| A35U C39G U54A U67C | 0.05 |
| A35U U48A G63A U72C | 0.2 |
| A35U U41A U60C A77U | 0.15 |
| A35U C40U A56G U69A U78C | 0.1 |
| A35G U51A A64G U80C | 1.27 |
| A35U C38A U60A U74A | 0.18 |
| A35G U49C U67C | 0.29 |
| A35G U49C U67A | 0.47 |
| A35U G52U U78C | 0.45 |
| A35G U49C U69C | 0.45 |
| A35G U54C U67A | 0.72 |
| A35U U43A A47G U69C U74C | 0.13 |
| A35U A64G U66C U78C | 0.15 |
| G36A U41A U48C U72A | 0.14 |
| A35G U74A U78C | 1.31 |

| Variant | self-cleavage |
| --- | --- |
| A35G U51C U72A | 1.26 |
| A35U U41A U51A | 0.28 |
| A35G U51C U67C U74C U80C | 0.92 |
| A35U A45G A47G U72C | 0.35 |
| A35U U48C U72C | 0.21 |
| A35U G46A A47G U49C U67C U72C | 0.07 |
| A35U U51C U54C U80C | 0.81 |
| A35U U51G C68G A77G | 0.11 |
| A35U U67A U72A | 0.1 |
| A35G U51A U67C U78C | 0.94 |
| A35G U72C A75G | 1.54 |
| A35U U49C U51C U80A | 0.13 |
| A35U U41C U78C | 0.49 |
| A35U A47C U54A C62A U72C | 0.06 |
| A35U U60G U78A | 0.13 |
| A35U A56G U60A C81U | 0.08 |
| A35U C62U A64U U78C | 0.11 |
| A35U U43A A45G A47U U76A | 0.17 |
| A35U G63U U80C | 0.71 |
| A35U U48A U66C | 0.12 |
| A35U U41A A45U U48A C71U A77C | 0.07 |
| A35U A45U U54A U60A G63U U66C | 0.11 |
| G36A U41A U66G | 0.12 |
| A35U U41C G73C | 1.11 |

| Variant | self-cleavage |
| --- | --- |
| A35U G52U U60A | 0.16 |
| A35U C39U C68A | 0.44 |
| A35U U49C A64U A65G | 0.14 |
| A35G U49C A56U | 0.94 |
| A35G U51C U74C | 1.27 |
| A35U U67G U72G | 0.11 |
| A35U U51C A56U | 0.28 |
| A35U U41A U66G | 0.21 |
| A35U U41C U54C U72G | 0.7 |
| A35G U60C A77U | 1.05 |
| A35U U51G A77C | 0.45 |
| A35U U41A C44U C59A A65U | 0.1 |
| A35U U41C U54C U60C | 0.14 |
| A35U A45U U69A | 0.12 |
| A35U A47G C62U A64G U69A | 0.13 |
| A35G U51A A77G | 1.28 |
| A35G U54C U60C A64G | 0.62 |
| A35U U48G U51C | 0.16 |
| A35G U54C U69C U76A U80A | 1.3 |
| A35U C38U A64U U69C | 0.09 |
| A35U U43C U51C U69A | 0.17 |
| A35U U54G U69A | 0.28 |
| A35U U54G U69C | 0.09 |

— the RNAGym collection of RNA variant scans (doi:10.1093/nar/gkz1192)
